Data from PMC9312982.
No constants are given. Whether binding was seen depends on the method and setting. Binding seen in cells or lysates may run through a third protein. Some entries that bind do so weakly or less than the wild type. Blank lines part the entries; values can stand above or below the molecule they belong to.

Protein sequences, listed by entry. Tags and fused reporters are not part of them.
UniProt P58753: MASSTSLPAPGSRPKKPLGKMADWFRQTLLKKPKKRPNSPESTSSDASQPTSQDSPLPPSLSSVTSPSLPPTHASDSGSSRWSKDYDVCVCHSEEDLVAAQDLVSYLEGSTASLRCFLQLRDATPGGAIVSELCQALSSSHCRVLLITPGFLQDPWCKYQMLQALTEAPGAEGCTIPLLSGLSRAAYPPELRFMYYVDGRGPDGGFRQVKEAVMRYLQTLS
UniProt P51617: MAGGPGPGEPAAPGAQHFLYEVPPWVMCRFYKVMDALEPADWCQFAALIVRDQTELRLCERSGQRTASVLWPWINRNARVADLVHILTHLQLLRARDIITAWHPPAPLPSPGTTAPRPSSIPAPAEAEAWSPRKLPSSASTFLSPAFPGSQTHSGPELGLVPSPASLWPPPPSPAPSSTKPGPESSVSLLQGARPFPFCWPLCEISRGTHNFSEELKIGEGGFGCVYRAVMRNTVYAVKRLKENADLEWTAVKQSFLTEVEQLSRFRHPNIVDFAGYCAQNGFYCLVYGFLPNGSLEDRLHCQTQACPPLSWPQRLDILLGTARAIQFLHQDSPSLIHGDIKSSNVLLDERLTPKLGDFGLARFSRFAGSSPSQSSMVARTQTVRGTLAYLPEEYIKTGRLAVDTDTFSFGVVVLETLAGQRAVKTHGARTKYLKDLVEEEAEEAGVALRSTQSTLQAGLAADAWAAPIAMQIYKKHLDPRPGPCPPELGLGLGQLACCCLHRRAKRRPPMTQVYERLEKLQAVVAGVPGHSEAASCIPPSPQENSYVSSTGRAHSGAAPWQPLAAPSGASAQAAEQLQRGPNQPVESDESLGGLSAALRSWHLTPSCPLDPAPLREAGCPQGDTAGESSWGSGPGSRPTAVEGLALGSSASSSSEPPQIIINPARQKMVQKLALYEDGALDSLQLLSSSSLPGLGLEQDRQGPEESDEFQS
UniProt Q99836: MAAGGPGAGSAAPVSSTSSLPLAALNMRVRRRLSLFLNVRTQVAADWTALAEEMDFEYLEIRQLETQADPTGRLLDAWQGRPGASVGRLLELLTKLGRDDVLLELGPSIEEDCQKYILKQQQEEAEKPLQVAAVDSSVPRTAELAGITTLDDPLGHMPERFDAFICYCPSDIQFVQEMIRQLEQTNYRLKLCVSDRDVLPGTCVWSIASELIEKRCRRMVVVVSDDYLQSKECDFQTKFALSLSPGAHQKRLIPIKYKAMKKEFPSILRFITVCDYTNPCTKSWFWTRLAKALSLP

Experiments:
[1] = molecular target: Toll-interleukin 1 receptor domain-containing adaptor protein (TIRAP) (human (endogenous in primary MDMs and THP-1)) (UniProt P58753); assay: co-IP; as a1, human primary MDMs stimulated with CL075 (2 µg/mL) for 15 min only
[2] = molecular target: Toll-interleukin 1 receptor domain-containing adaptor protein (TIRAP) (human (endogenous in primary MDMs and THP-1)) (UniProt P58753); assay: co-IP; endogenous TIRAP precipitated for 4 h at +4 °C with anti-TIRAP antibodies covalently coupled to Dynabeads from lysates of human primary MDMs (150 mM NaCl, 50 mM TrisHCl pH 8.0, 1 mM EDTA, 1% NP40); cells untreated or stimulated by LPS (100 ng/mL) or CL075 (2 µg/mL) for the indicated times; Western blot for MyD88, IRAK1, IRAK4, TIRAP
[3] = molecular target: Toll-interleukin 1 receptor domain-containing adaptor protein (TIRAP) (human (endogenous in primary MDMs and THP-1)) (UniProt P58753); assay: co-IP; TIRAP precipitated from lysates of LPS-stimulated THP-1 cells, with or without pre-treatment with the IRAK4 inhibitor PF-06426779; Western blot

binding [2]: binds
Molecule: interleukin-1 receptor-associated kinase 1 (IRAK1) (from UniProt P51617 1-712)
binding [1]: no binding (condition: 15 min of CL075 stimulation)

Molecule: myeloid differentiation primary response gene 88 (MyD88) (from UniProt Q99836 1-296)
binding [1]: no binding (condition: 15 min of CL075 stimulation)

binding [3]: binds | binding [2]: binds
B1: interleukin-1 receptor-associated kinase 4 (IRAK4) (protein, UniProt Q9NWZ3 1-460)
chain: MNKPITPSTYVRCLNVGLIRKLSDFIDPQEGWKKLAVAIKKPSGDDRYNQFHIRRFEALLQTGKSPTSELLFDWGTTNCTVGDLVDLLIQNEFFAPASLLLPDAVPKTANTLPSKEAITVQQKQMPFCDKDRTLMTPVQNLEQSYMPPDSSSPENKSLEVSDTRFHSFSFYELKNVTNNFDERPISVGGNKMGEGGFGVVYKGYVNNTTVAVKKLAAMVDITTEELKQQFDQEIKVMAKCQHENLVELLGFSSDGDDLCLVYVYMPNGSLLDRLSCLDGTPPLSWHMRCKIAQGAANGINFLHENHHIHRDIKSANILLDEAFTAKISDFGLARASEKFAQTVMTSRIVGTTAYMAPEALRGEITPKSDIYSFGVVLLEIITGLPAVDEHREPQLLLDIKEEIEDEEKTIEDYIDKKMNDADSTSVEAMYSVASQCLHEKKNKRPDIKKVQQLLQEMTAS
binding [1]: no binding (condition: 15 min of CL075 stimulation)
